Paper PMC12136788
Some of the results follow.

T1: UNK ZnF1-3 (human, UniProt Q9C0B0 31-174)
T1 sequence: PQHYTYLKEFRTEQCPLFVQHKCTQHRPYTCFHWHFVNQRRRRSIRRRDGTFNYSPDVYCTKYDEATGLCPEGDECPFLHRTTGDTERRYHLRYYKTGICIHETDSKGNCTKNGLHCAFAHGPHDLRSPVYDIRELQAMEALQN

B1: chr12:16048344:16048345:+_ENSG00000023734_ENST00000419869|hu_hu|hu_hu_hu_mus_True|18_68 (ssRNA)
RNA: GGGAGUUCUACAGUCCGACGAUCAGAUCGUCCAUAAGUAAUAACCAAAAUCUCUCCUUCAGGAAUAUAUUCCAUACUGCUAACAGACAUAUUAAAAUUCAGAGAUUUCACUUCUGUCAUAGUAGCAUGAUCCCAGAGCCGAACCAACAGAGGAUUGAGCAUCA
B2: chr1:88243738:88243739:-_ENSMUSG00000026234_ENSMUST00000027438|mus_mus|motif|central (ssRNA)
RNA: GGGAGUUCUACAGUCCGACGAUCCAUGAGUUCAAUCCCCAGUAAUCACAUGGUGGCUCUCAAUAAUCUGUAAUGGGAUUCGGUGCCCUCUUCUGGUGUGUCUGAAGACAGCUACAGUGUACUCAUAUACAUAAAAUAAAAAUCCAACAGAGGAUUGAGCAUCA
B3: chr3:100366718:100366719:-_ENSMUSG00000008763_ENSMUST00000008907|mus_hu|motif|central (ssRNA)
RNA: GGGAGUUCUACAGUCCGACGAUCAUUCUUAAAGAAAAAUCUAUUAUCUGUUAGCAUGAUUGGAGCACUGCAAUGUAUAUGCGGGUAAUAUGGUGUGUAAUUUCACAAGCAAUUUUAUGAGUUCUGCAAUUGCUAGGCUCAAACCAACAGAGGAUUGAGCAUCA
B4: chr20:42825305:42825306:-_ENSG00000132823_ENST00000255174|hu_hu|motif|central (ssRNA)
RNA: GGGAGUUCUACAGUCCGACGAUCAUUAAAUCAGAGACGGUUUAAAUCAGUCUUGUAACUUCUAAUAUUCUGGGCUGGCAACGGCAGCAUGACAAAUGUUUAGUGCAGUUACAAAAUCACAUUUUACUUUCCUUGGCUAGCAAACAACAGAGGAUUGAGCAUCA
B5: chr16:2758876:2758877:+_ENSG00000167977_ENST00000301738|hu_mus|FALSE|FALSE (ssRNA)
RNA: GGGAGUUCUACAGUCCGACGAUCAAGUUUUAAUAUCAUUAAAUUAAAAAAACAGAAACAAAAACCCCCAGAAGCCUAUCUAUUGUCAAAGUCAUAAAUGAAGCAAUGCUGAGUGUCCAGCCACUCCCCAGAGCAUCCCCAUGGCAACAGAGGAUUGAGCAUCA
B6: chr12:103220134:103220135:+_ENSMUSG00000041781_ENSMUST00000047357|mus_hu|motif|central (ssRNA)
RNA: GGGAGUUCUACAGUCCGACGAUCGAAAGGGUAGUUAAUUUGAUAAUAGACGUCAUUUUUUUUGGUCCAGAAACAGCAAGCGGGAAGAGUUGAUAUCUUAGUCGUAUAUAUGAUGAAACACCAGGAAUUCUGAAGAGUUCUUUACAACAGAGGAUUGAGCAUCA
B7: chr1:163112212:163112213:-_ENSG00000143248_ENST00000313961|hu_hu|hu_hu_hu_mus_False|78_98 (ssRNA)
RNA: GGGAGUUCUACAGUCCGACGAUCUUUUAUUAUCAGUAAGCAUGAGUUACAUACUAGAUAAAGUAUUGGAUACAAUAAUCAGGAAACAAACACUAUUGGUCCAGAAUUUAAAACUUUAUGAGCGAAGUGCUGGCACAGGACUUACAACAGAGGAUUGAGCAUCA
B8: 14279964_14280084_3095_CDS_ENSMUSG00000039219_ENSMUST00000039538|mouse|control|control (ssRNA)
RNA: GGGAGUUCUACAGUCCGACGAUCCUGACUAGCUUCUGUUAUAGUGACUGAAGAAGGCGACUCUGGUGUGGUAGGUGGGGUAUUGAGCACUGAAUUACUGCCACUGCUCGGAAAUUCUGUUUUCCUAUCACUAACUUCUAGGGGCAACAGAGGAUUGAGCAUCA
B9: chr15:4003764:4003765:+_ENSMUSG00000022186_ENSMUST00000110690|mus_mus|FALSE|FALSE (ssRNA)
RNA: GGGAGUUCUACAGUCCGACGAUCAUAUUUGAUGGGUGAUCCUCCUUCCUGUACCAGAGUCCCAUACCCUGUGCUGGUGUAGAAGGCAGGGACUCCAGCUCCACCGGCACGGAUCCUCUCGGCAAGUGUGCCCUGAGGUGUCAGCAACAGAGGAUUGAGCAUCA
B10: chr1:220273833:220273834:+_ENSG00000067704_ENST00000302637|hu_hu|FALSE|FALSE (ssRNA)
RNA: GGGAGUUCUACAGUCCGACGAUCAUCCCAGCCGGGCACAAAAUGUAUUUUGGAGCCAUUCAUCAUAUGGAAUCGAUUGGCUAUGUCUUUCAAAAUCUUAUUUAAAGCAUGUCCAACAUGAGGGUCACCGUUUGCAUAAGGAGGCAACAGAGGAUUGAGCAUCA
B11: chr12:3367242:3367243:+_ENSMUSG00000020668_ENSMUST00000020999|mus_mus|FALSE|FALSE (ssRNA)
RNA: GGGAGUUCUACAGUCCGACGAUCGUUAUCAUCUUCCUCUUCGGCCACCCAGGCCUCAAUCACGGACCCCUCUGGAUAGCCGGCUGGGGCAGACACGGCCUUCUUUCUACGACUGCUCUUUCUCCGAGGUCGCUUGCCCAGCAUCAACAGAGGAUUGAGCAUCA
B12: chr11:50193004:50193005:+_ENSMUSG00000007850_ENSMUST00000069304|mus_hu|FALSE|FALSE (ssRNA)
RNA: GGGAGUUCUACAGUCCGACGAUCUGAUUCAAGUUCAACAAAAGCCUCGCCACUUGGUCUGCCUUCUCUGGUGUAGAUGAAACGAAUACCUUGAGCCCCAUUUUGAAUUUUGCAGUCAGAAAAAAACCUCUGCACUUCAUCGGCCAACAGAGGAUUGAGCAUCA
B13: chr6:41757443:41757444:+_ENSG00000214736_ENST00000398881|hu_mus|hu_hu_hu_mus_False|8_58 (ssRNA)
RNA: GGGAGUUCUACAGUCCGACGAUCGAACCGUGCAGAGGCAACAUCUCAGCCGACACUGGGGGAUGGGGGGGCAGUGGGAAACUAGGCAGGCAAGGAGAGGGAGUCAACUUCAGCUGCCACUCAGGUAGCUGCCAUCAGUCACAGCAACAGAGGAUUGAGCAUCA
B14: chr2:232320318:232320319:-_ENSG00000115053_ENST00000322723|hu_hu|hu_hu_hu_mus_True|18_108 (ssRNA)
RNA: GGGAGUUCUACAGUCCGACGAUCACUGUUGAAGUCUACAAAACCAAACCCUUUGGAAGAACCAGUUUCCCGAUCAGUGACUAUUCUUGCACGAACAGAGCCCUCAAAUGAUUCUUUUAAUGUCUCUUCAGUGGUAUCCUCAGACAACAGAGGAUUGAGCAUCA
B15: 7371406_7376421_261_ncRNA_ENSMUSG00000031153_ENSMUST00000132456|mouse|control|control (ssRNA)
RNA: GGGAGUUCUACAGUCCGACGAUCGCAAAGCUUGCUGAACUCGGCCAUAAGUGUACUGUUCUGCAAACGGAAGUCCUCCUCCUGGCUGUGCAGCUUUGCCUGCAGCAUCUCAUUUUCACUCAGCAGUACCUCCACUUCCUGAGCCAACAGAGGAUUGAGCAUCA
B16: 64764304_64764424_3119_3pUTR_ENSMUSG00000059920_ENSMUST00000076991|mouse|control|control (ssRNA)
RNA: GGGAGUUCUACAGUCCGACGAUCUUUUUCAAAAGAAAACAUAAAGUAUAAAAUCAAACUGAAUUUCCAAAACCCAAGUAGAGGUAGAAAGUGGAUAAGAAUGUGAUCUGGUUGUUUUGCCUUAUAAACAAGAAAAUUAUUUUUCAACAGAGGAUUGAGCAUCA
B17: chr17:33883638:33883639:-_ENSMUSG00000077450_ENSMUST00000057373|mus_mus|FALSE|FALSE (ssRNA)
RNA: GGGAGUUCUACAGUCCGACGAUCGCAACAGUGCAAGGGCUACAGGGAGAAUAAGAGUUCGAGAGCUGGGGUUUGGCGUAAAUUUUACAAAGUGUAUAAAGAAUCUGUUCUCUACAAUAACAAAAACCAAAGGCUACAAGAGCACAACAGAGGAUUGAGCAUCA
B18: 57906712_57908587_2126_CDS_ENSG00000166986_ENST00000262027|human|control|control (ssRNA)
RNA: GGGAGUUCUACAGUCCGACGAUCAUGGGCCAGCAGGCGCUGAUCAUCAGGGGUGAGCACCAUCUCAGGCACAUAGCCCCCAAAGAACUUAGACACAAACAUCCCAGCUCUGUUGAUGAAGUUGCCCAGGUUGUUAAGCAGCUCCAACAGAGGAUUGAGCAUCA
B19: chr2:228220401:228220402:+_ENSG00000168958_ENST00000354503|hu_mus|FALSE|FALSE (ssRNA)
RNA: GGGAGUUCUACAGUCCGACGAUCUAAUGAAGCUGCAUCUACCACAGUCAUGUCAUCUGAAGCUCCUUCAAUGGCUGCAUCUAGGUUUGAAAUGCCAUACCUGACGUUGUCAUGAUGAGGAUUAGAAGUGGCGGCAGCUGACCCCAACAGAGGAUUGAGCAUCA
B20: chr16:45382771:45382772:-_ENSMUSG00000022661_ENSMUST00000163230|mus_mus|mus_mus_mus_hu_True|98_98 (ssRNA)
RNA: GGGAGUUCUACAGUCCGACGAUCCUGGGUCAUGUUAUGGGCCCAAUGGACAGGGAGGGCAUGCUUCUCAAAAAAUGUGAGCUAUUGUCUAAGACUAACAAUAUUUAUCUAGCUAUAAAAAUAAGUUAAAUGAAUAAGUUAAGACAACAGAGGAUUGAGCAUCA
B21: chr7:75932113:75932114:+_ENSG00000106211_ENST00000248553|hu_hu|hu_hu_hu_mus_False|28_108 (ssRNA)
RNA: GGGAGUUCUACAGUCCGACGAUCCUGCGACCACUCCUCGGGCAACCGGGGCACCCCGAAAGCUUGAUCGAAGAGGCGGCUGUGUGCAGGGUACCAGUCCCGGAAUGCCCAGCUGGGCGGGCUCCGCAGCAGCGAGAAGGGCACCAACAGAGGAUUGAGCAUCA
B22: chr7:54825262:54825263:-_ENSG00000132432_ENST00000352861|hu_hu|hu_hu_hu_mus_False|1_38 (ssRNA)
RNA: GGGAGUUCUACAGUCCGACGAUCCUGCCGGCUGGGCUCCACAAACUGCAUUACCUGAUCCAUGUUUGUUGGAUGGCGGAUUGAGAGCGUAGAGACAACGUAGCACUGAGAGAACCGAGCCCAACGGAACCGGAAGCGGAAUCCCAACAGAGGAUUGAGCAUCA

Target: T1, UNK ZnF1-3
Assay: nsRBNS (natural sequence RNA bind-n-seq); RBNS binding buffer (assumed for nsRBNS): 25 mM Tris pH 7.5, 150 mM KCl, 3 mM MgCl2, 0.01% Triton X-100, 500 ug/ml BSA, 20 U/ml SUPERase-In, 4 C; UNK is unkempt and MSI1 is Musashi-1; names of the RNAs are library labels; protein concentration not given here; high values mean tight binding

| Binder | binding signal |
| --- | --- |
| B1 | 0.875 enrichment R |
| B2 | 1.99 enrichment R |
| B3 | 1.12 enrichment R |
| B4 | 0.934 enrichment R |
| B5 | 2.83 enrichment R |
| B6 | 2.09 enrichment R |
| B7 | 1.44 enrichment R |
| B8 | 1.07 enrichment R |
| B9 | 0.471 enrichment R |
| B10 | 1.6 enrichment R |
| B11 | 0.614 enrichment R |
| B12 | 1.26 enrichment R |
| B13 | 2.26 enrichment R |
| B14 | 0.906 enrichment R |
| B15 | 0.708 enrichment R |
| B16 | 2.02 enrichment R |
| B17 | 2.05 enrichment R |
| B18 | 1.33 enrichment R |
| B19 | 0.738 enrichment R |
| B20 | 1.31 enrichment R |
| B21 | 0.588 enrichment R |
| B22 | 1.33 enrichment R |
